The whole screen tested about 350,000 compounds, of which about 260 (0.074%) were called active. This list was built around the results that the source calls inconclusive (neither active nor inactive); the mix of calls is not that of the screen. Calls follow the shape of the dose curve; as a rule, active = well fitted inhibition curve with a large enough effect; inconclusive = small, poorly fitted or top-dose-only effect; inactive = no such curve, though single readings can be large or run the other way. A potency beside an inconclusive call is a rough fit, not a confirmed value.
Biological target: Ferritin light chain (Equus caballus) (UniProt P02791)
Chain of UniProt P02791 (P02791 whole entry, looked up): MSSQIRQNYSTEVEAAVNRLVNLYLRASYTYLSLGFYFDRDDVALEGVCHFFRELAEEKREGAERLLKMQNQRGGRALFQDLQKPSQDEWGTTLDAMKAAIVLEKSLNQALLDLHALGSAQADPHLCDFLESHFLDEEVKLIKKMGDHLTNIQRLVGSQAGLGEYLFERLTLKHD
Assay: qHTS Assay for Identification of Novel General Anesthetics; also: nearly all actives have a fitted effect of over 20% in size
Conditions: apoferritin/1-aminoanthracene competitive binding, fluorescence; activity change, negative = displacement: at 77.5 µM (top of the series)
How it was run: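 Concentration-response curves derived by four-parameter Hill fitting of normalized fluorescence, where compounds displaced 1-AMA from 10 uM horse apoferritin following a brief 10 min room-temperature incubation; propofol titration acted as positive control.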
% is scaled to controls: 0 for no effect and ±100 for the full control effect; potency is read from the fitted curve at half-maximal effect; tags tell the direction and shape of the fitted curve.

Potency, inconclusive:
COc1ccc(/C=C2\SC(N3CCc4ccccc4C3)=NC2=O)cc1OC 31.6 µM [inhibitor, partial curve]
O=C(c1sc2cc([N+](=O)[O-])ccc2c1Cl)N1CCCCC1 56.2 µM [inhibitor, single point]
Cc1c(NS(=O)(=O)c2ccc3nc(COc4ccccc4Cl)[nH]c3c2)c(=O)n(-c2ccccc2)n1C 17.8 µM [inhibitor, partial curve]
CC1CC(C)CN(C(=O)CCCn2c(=S)[nH]c3ccccc3c2=O)C1 (stereo not given) 39.8 µM [inhibitor, partial curve]
Cc1ccc(Sc2ccc(CO)cc2[N+](=O)[O-])cc1 39.8 µM [inhibitor, partial curve]
O=C(Nc1cccc2ccccc12)C1CCCC1 25.1 µM [inhibitor, partial curve]
CSc1ccc(/C=N/n2c(Cc3ccc(Br)cc3)n[nH]c2=S)cc1 14.1 µM [inhibitor, partial curve]
Cc1cc(C)n(-c2ccc(C(=O)OCn3nnc4ccccc4c3=O)cc2)n1 25.1 µM [inhibitor, partial curve]
O=C(CC1C(=O)NCCN1CC1CCCCC1)NCc1ccc(Cl)cc1 (stereo not given) 44.7 µM [inhibitor, single point]
CC(Sc1nnc(N)s1)C(=O)Nc1ccc2c(c1)OCCO2 (stereo not given) 35.5 µM [inhibitor, partial curve]
CSCCC(NC(=O)c1ccco1)C(=O)OCc1cc([N+](=O)[O-])cc2c1OCOC2 (stereo not given) 39.8 µM [inhibitor, single point]
COc1ccc(CN(C(=O)c2oc3cc(C)ccc3c2C)C2CCS(=O)(=O)C2)cc1OC (stereo not given) 31.6 µM [inhibitor, partial curve]
COc1ccc(C(=O)NCC(=O)OCC(=O)N2CCc3ccccc32)cc1 8.91 µM [inhibitor, partial curve]
NC(N)=Nc1nc(-c2ccccc2)c2cc(F)ccc2n1 31.6 µM [inhibitor, partial curve]
Cc1ccccc1C(=O)c1cccn1CC(=O)NC(C)c1ccc2c(c1)OCCO2 (stereo not given) 20 µM [inhibitor, partial curve]
CCC1CN(C(=O)N2CCC(C(=O)NCCCc3ccccc3)CC2)c2ccccc2O1 (stereo not given) 3.16 µM [inhibitor, full curve, poor fit]
c1ccc(Cc2ccc(OCCCNC3CCCC3)cc2)cc1 17.8 µM [inhibitor, partial curve]
COc1cc(/C=N\NC(=O)c2ccc(Cn3nc([N+](=O)[O-])c(Cl)c3C)o2)ccc1O 25.1 µM [inhibitor, partial curve]
CCc1ccc(OCc2nnc(SCCN3CCOCC3)n2CC)cc1 22.4 µM [inhibitor, single point]
Cc1ccccc1CCN(CC(=O)NC1CCCCC1)C(=O)c1csnn1 35.5 µM [inhibitor, single point]
O=C(NCc1ccccc1)c1ccc(NC(=O)N2CCSc3ncccc32)cc1 14.1 µM [inhibitor, single point]
Cc1ccc(C2=NN(CC(=O)NC(C)c3ccccc3)C(=O)CC2)cc1 (stereo not given) 10 µM [inhibitor, full curve]
CCN(CC)CCCN(C(=O)c1ccc(OC)cc1)c1nc(-c2ccc(OC)cc2)cs1 39.8 µM [inhibitor, single point]
Cc1ccc2[nH]c(O)c(N=NC(=O)C(C)n3cnc4ccccc4c3=O)c2c1 (stereo not given) 35.5 µM [inhibitor, partial curve]
CCOC(=O)c1c(C)[nH]c(C(=O)COC(=O)CNC(=O)c2ccccc2Cl)c1C 15.8 µM [inhibitor, partial curve]
COc1ccc(NC(=O)C2CCCCN2N)cc1OCC(C)C (stereo not given) 50.1 µM [inhibitor, single point]
CC(=O)CC(C)(C)Nc1nc2ccc([N+](=O)[O-])cc2o1 35.5 µM [inhibitor, single point]
Cc1cc(NC(=O)CCC2CCCCC2)no1 31.6 µM [inhibitor, single point]
Nc1nnc(SCCOc2cccc(Br)c2)s1 3.98 µM [inhibitor, full curve]
CC1(C)CC(=O)c2c(-c3cccs3)n[nH]c2C1 39.8 µM [inhibitor, partial curve]
Cc1ccc(-c2ccc(=O)n(CC(=O)Nc3ccc(C(C)C)cc3)n2)cc1 6.31 µM [inhibitor, full curve]
O=C1C2C(c3ccccc3)C=CC(c3ccccc3)C2C(=O)N1c1ccncc1 (stereo not given) 39.8 µM [inhibitor, single point]

Potency, active:
O=[N+]([O-])c1ccc(Nc2ccccc2O)c2nonc12 17.8 µM

Activity change, negative = displacement, inactive:
CC12CN3CC(C)(CN(C1)C3c1ccc(Cl)cc1Cl)C2O (stereo not given) -9.65%
Cc1ccc(C(=O)OCC(=O)c2ccc(Cl)s2)s1 -14%
COc1ccc(CNc2oc(COc3ccccc3)nc2C#N)cc1 -10.1%
CCC(=O)CC(NC(=O)OC)c1ccc(F)cc1 (stereo not given) 3.96% [at 15.3 µM]
Cc1cccc(CCN(CC(=O)NCc2ccc(F)cc2)C(=O)c2csnn2)c1 -11.8%
O=C(NNc1ccccc1Br)C(O)(c1cccc(C(F)(F)F)c1)c1cccc(C(F)(F)F)c1 -4.21%
CCCC12CN3CC(C)(CN(C1)C31CCCCC1)C2=O -6.9%
CCCc1nnc(NC(=S)Nc2ccccc2)s1 -6.57%
Cc1ccccc1OCC(=O)Nc1ccc([N+](=O)[O-])cc1 -9.17%
O=C(CN1CCN(Cc2ccccc2)CC1)Nc1ccccc1-c1ccccc1 -16.8%
O=C(O)Cn1nc(-c2ccccc2)ccc1=O -0.418%
Cc1ccc(Cn2ncc3c(N4CCCC4)ncnc32)cc1 -2%

Reference: PubChem BioAssay AID485281 (National Center for Advancing Translational Sciences (NCATS), 2010)
